# Source: PubChem BioAssay (NCATS)
# Several values for one entry are separate records, joined by “and”; a condition that tells them apart may be missing. Equal values may be shown once. The shares of active, inactive and inconclusive entries below differ from those in the screen. For some of these results: Potencies of inconclusive entries are doubtful fits and often do not repeat. For some of these results: “Side channel” marks fits to a control or component signal instead of the main read-out. Activity calls are given as the source filed them. Unless noted, calls come from the whole dose curve; as a rule, active = well fitted curve in the direction sought with a large enough effect; inconclusive = small, poorly fitted or top-dose-only effect, or another doubt; inactive = no such curve, though single readings can be large; an effect the other way counts as inactive or inconclusive.
# Assays:
# [1] = molecular target: Estrogen receptor (Homo sapiens) (UniProt P03372); assay: qHTS assay for small molecule antagonists of estrogen receptor alpha signaling (AID 588513; active = well fitted curve in the direction sought with a large enough effect in the signal ratio, with a control signal flat, not every such curve was filed as active; inconclusive = small, poorly fitted or top-dose-only effect, or effect the other way, or a change in a side signal; inactive = no such curve, though single readings can be large or run the other way; the % refers to the signal ratio; note: potency is the fitted concentration of half-maximal effect; for activity, negative = inhibition: % is set by controls: 0 for no effect and ±100 for the full control effect); details: ER-alpha-UAS-bla HEK293, beta-lactamase ratio, antagonist mode; activity, negative = inhibition: at 76.9 µM (top of the series) unless noted
# Sequence of UniProt P03372 (P03372 whole entry, looked up): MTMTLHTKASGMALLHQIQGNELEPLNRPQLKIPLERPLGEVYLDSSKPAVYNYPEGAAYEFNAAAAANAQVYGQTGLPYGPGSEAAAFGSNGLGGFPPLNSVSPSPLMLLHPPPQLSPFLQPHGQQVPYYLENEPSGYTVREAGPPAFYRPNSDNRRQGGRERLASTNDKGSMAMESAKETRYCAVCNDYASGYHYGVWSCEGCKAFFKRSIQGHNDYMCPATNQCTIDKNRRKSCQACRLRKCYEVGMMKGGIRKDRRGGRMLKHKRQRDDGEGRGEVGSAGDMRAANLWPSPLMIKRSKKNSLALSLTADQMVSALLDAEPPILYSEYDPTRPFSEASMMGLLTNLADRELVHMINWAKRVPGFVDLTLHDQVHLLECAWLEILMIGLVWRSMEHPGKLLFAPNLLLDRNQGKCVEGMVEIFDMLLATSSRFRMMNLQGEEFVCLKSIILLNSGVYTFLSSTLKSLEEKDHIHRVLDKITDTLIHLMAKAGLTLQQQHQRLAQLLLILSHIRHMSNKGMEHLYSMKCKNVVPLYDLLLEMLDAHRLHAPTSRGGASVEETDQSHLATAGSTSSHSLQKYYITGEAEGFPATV
# How it was run: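 Beta-lactamase reporter, antagonist mode, HEK 293 GripTite cells; 0.5nM E2 stimulus, 18 h, 37 C; CCF4 dye 2 h RT; fluorescence. IC50 and efficacy from Hill fits, normalized to E2 and DMSO.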
# [2] = molecular target: Estrogen receptor (Homo sapiens) (UniProt P03372); assay: qHTS assay for small molecule agonists of estrogen receptor alpha signaling (AID 588514; calls by dose curve; note: nearly all actives have a fitted effect of over 70% in size; note: potency is the fitted concentration of half-maximal effect;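 for activation: 0% = vehicle only and 100% = reference agonist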); details: ER-alpha-UAS-bla HEK293, beta-lactamase ratio, 18 h; activation: at 76.8 µM (top of the series), percent of full estradiol response, vehicle zero unless noted
# How it was run: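 Read-out: CCF4 fluorescence from a beta-lactamase reporter in ER-alpha-UAS-bla HEK 293 cells after 18 hrs of compound exposure at 37 C. Normalized to 20 nM 17-beta-estradiol (100%) and DMSO (0%).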
# [3] = molecular target: Glucocorticoid receptor (Homo sapiens) (UniProt P04150); assay: qHTS assay for small molecule agonists of glucocorticoid receptor signaling (AID 588532; active = well fitted curve in the direction sought with a large enough effect in the signal ratio, with a control signal flat; inconclusive = small, poorly fitted or top-dose-only effect, or a change in a side signal; inactive = no such curve, though single readings can be large or run the other way; the % refers to the signal ratio; note: potency is the fitted concentration of half-maximal effect;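 for activation: 100% = dexamethasone at 0.1 µM and 0% = DMSO only wells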); details: HeLa MMTV-bla, beta-lactamase ratio, agonist, 18 h; activation: stronger effect = higher value, percent of dexamethasone control, DMSO zero
# How it was run: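 Using MMTV-bla HeLa cells in medium with 1% stripped FBS and 25 mM HEPES, compounds were titrated and incubated overnight-length (18 h). Beta-lactamase cleavage of CCF4 was quantified by dual-emission fluorescence.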
# [4] = molecular target: Vitamin D3 receptor (Homo sapiens) (UniProt P11473); assay: qHTS assay for small molecule antagonists of vitamin D receptor signaling (AID 588541; calls by dose curve; note: potency is the fitted concentration of half-maximal effect;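 for activity change, negative = inhibition: receptor activated by calcitriol during compound treatment; % is set by controls: 0 for no effect and ±100 for the full control effect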); details: HEK293T VDR-UAS-bla, beta-lactamase ratio, antagonist mode; activity change, negative = inhibition: at 76.7 µM (top of the series)
# [5] = molecular target: Ubiquitin carboxyl-terminal hydrolase 1 (Homo sapiens) (UniProt O94782); assay: Inhibitors of USP1/UAF1: Pilot qHTS (AID 504865);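 note: rhodamine fluorescence freed from ubiquitin-rhodamine substrate followed over time; potency is the fitted concentration of half-maximal effect; nearly all actives have a fitted effect of over 35% in size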
# Sequence of UniProt O94782 (O94782 whole entry, looked up): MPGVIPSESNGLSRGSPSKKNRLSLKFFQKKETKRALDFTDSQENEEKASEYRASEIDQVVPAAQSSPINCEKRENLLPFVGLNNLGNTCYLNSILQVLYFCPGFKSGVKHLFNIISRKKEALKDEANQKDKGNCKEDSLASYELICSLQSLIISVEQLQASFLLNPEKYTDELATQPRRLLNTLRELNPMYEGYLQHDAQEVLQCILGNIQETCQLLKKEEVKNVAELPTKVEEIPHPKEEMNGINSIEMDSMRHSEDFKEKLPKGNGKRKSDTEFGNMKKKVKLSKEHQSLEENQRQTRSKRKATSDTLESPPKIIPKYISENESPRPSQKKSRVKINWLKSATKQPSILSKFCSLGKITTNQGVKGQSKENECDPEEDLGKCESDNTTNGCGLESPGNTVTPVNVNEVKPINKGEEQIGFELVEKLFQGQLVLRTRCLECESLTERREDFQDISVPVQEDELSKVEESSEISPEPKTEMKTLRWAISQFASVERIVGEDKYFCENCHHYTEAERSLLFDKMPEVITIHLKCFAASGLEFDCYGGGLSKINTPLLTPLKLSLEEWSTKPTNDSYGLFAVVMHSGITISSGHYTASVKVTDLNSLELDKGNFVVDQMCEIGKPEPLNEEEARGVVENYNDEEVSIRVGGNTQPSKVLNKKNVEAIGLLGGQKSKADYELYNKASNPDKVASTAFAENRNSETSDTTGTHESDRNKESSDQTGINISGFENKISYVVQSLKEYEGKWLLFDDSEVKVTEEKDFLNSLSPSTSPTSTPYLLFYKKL
# How it was run: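 1nM USP1/UAF1 + cpd, 15 min RT; start w/ Ub-Rho 150nM final; kinetic FL 480/540 nm, 6 reads q60 s. Buffer 50mM HEPES pH 7.8, 0.5mM EDTA, 1mM TCEP, 0.01% Tween-20, 0.1 mg/ml BSA.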
# [6] = molecular target: Glucocorticoid receptor (Homo sapiens) (UniProt P04150); assay: qHTS assay for small molecule antagonists of glucocorticoid receptor signaling (AID 588533; active = well fitted inhibition curve with a large enough effect in the signal ratio, with a control signal flat, not every such curve was filed as active; inconclusive = small, poorly fitted or top-dose-only effect, or effect the other way, or a change in a side signal; the % refers to the signal ratio;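 note: cells stimulated with 2 nM dexamethasone as agonist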; note: potency is the fitted concentration of half-maximal effect; for activity change, negative = inhibition: % is set by controls: 0 for no effect and ±100 for the full control effect); details: HeLa MMTV-bla, GRE beta-lactamase ratio, antagonist mode, 18 h
# [7] = molecular target: Peroxisome proliferator-activated receptor gamma (Homo sapiens) (UniProt P37231); assay: qHTS assay for small molecule agonists of peroxisome proliferator-activated receptor gamma signaling (AID 588536; active = well fitted curve in the direction sought with a large enough effect in the signal ratio, with a control signal flat, not every such curve was filed as active; inconclusive = small, poorly fitted or top-dose-only effect, or effect the other way, or a change in a side signal; inactive = no such curve, though single readings can be large or run the other way; the % refers to the signal ratio; note: potency is the fitted concentration of half-maximal effect;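 for activation: 0% = DMSO basal wells and 100% = rosiglitazone at 2 µM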); details: HEK293 PPARg-UAS-bla, beta-lactamase ratio, 16 h; activation: at 76.7 µM (top of the series), percent of rosiglitazone response, DMSO as zero
# How it was run: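 Cells were plated and held 6–6.5 h at 37 C, then compounds were added as a titration series. After a further 16 h, CCF4 dye was loaded for 2 h at room temperature and emission at 460/530 nm recorded.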
# [8] = molecular target: Peroxisome proliferator-activated receptor gamma (Homo sapiens) (UniProt P37231); assay: qHTS assay for small molecule antagonists of peroxisome proliferator-activated receptor gamma signaling (AID 588537; active = well fitted inhibition curve with a large enough effect in the signal ratio, with a control signal flat, not every such curve was filed as active; inconclusive = small, poorly fitted or top-dose-only effect, or effect the other way, or a change in a side signal; the % refers to the signal ratio; note: potency is the fitted concentration of half-maximal effect;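 note: reporter cells co-stimulated with 50 nM rosiglitazone agonist during compound treatment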; for activity, negative = inhibition: % of control where 0% means no effect); details: HEK293 PPARg-UAS-bla, beta-lactamase ratio, antagonist mode; activity, negative = inhibition: at 76.8 µM (top of the series)
# How it was run: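 Cell-based beta-lactamase assay; GW9662 served as the antagonist control. Stimulation used rosiglitazone, final 50 nM, 16 h, 37 C.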
# [9] = molecular target: Androgen receptor (Homo sapiens) (UniProt P10275); assay: qHTS assay for small molecule agonists of androgen receptor signaling (AID 588515; active = well fitted curve in the direction sought with a large enough effect in the signal ratio, with a control signal flat; inconclusive = small, poorly fitted or top-dose-only effect, or effect the other way, or a change in a side signal; inactive = no such curve, though single readings can be large or run the other way; the % refers to the signal ratio; note: potency is the fitted concentration of half-maximal effect); details: AR-UAS-bla HEK293, beta-lactamase ratio, agonist 16 h; activation: stronger effect = higher value
# Sequence of UniProt P10275 (P10275 whole entry, looked up): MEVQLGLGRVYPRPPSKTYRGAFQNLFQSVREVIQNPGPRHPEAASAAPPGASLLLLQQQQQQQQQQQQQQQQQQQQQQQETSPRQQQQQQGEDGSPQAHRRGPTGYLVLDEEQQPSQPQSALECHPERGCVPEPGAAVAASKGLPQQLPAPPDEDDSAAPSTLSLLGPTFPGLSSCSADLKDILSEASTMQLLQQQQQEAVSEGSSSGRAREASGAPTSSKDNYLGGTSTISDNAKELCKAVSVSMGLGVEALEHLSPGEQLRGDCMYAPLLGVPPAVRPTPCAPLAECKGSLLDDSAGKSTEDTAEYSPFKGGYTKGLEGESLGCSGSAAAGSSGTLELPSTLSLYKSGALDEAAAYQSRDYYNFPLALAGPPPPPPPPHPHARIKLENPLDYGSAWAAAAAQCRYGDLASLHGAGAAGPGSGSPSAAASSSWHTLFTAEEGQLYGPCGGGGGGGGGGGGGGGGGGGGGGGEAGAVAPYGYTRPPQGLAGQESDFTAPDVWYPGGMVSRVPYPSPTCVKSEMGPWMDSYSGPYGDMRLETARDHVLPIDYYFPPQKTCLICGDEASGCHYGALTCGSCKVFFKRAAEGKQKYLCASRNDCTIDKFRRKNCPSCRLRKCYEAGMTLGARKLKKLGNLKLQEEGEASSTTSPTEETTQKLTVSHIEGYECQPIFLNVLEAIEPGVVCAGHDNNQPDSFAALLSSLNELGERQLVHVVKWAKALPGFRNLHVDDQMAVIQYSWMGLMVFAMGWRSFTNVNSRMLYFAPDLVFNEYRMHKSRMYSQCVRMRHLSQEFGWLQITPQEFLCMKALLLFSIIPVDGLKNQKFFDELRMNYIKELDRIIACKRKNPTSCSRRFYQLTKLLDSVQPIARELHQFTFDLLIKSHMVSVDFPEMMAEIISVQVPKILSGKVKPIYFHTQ
# How it was run: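 Stimulation of an AR-responsive β-lactamase reporter in GripTite HEK293 cells was measured after 16 h compound exposure at 37 °C, via CCF4 fluorescence after 2 h RT. EC50 from Hill fits, normalized to R1881 at 30 nM.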
# [10] = molecular target: Peroxisome proliferator-activated receptor delta (Homo sapiens) (UniProt Q03181); assay: qHTS assay for small molecule antagonists of peroxisome proliferator-activated receptor delta signaling (AID 588535; active = well fitted inhibition curve with a large enough effect in the signal ratio, with a control signal flat, not every such curve was filed as active; inconclusive = small, poorly fitted or top-dose-only effect, or effect the other way, or a change in a side signal; inactive = no such curve, though single readings can be large or run the other way; the % refers to the signal ratio; note: potency is the fitted concentration of half-maximal effect); details: HEK293T PPARd-UAS-bla, beta-lactamase FRET ratio, 18 h
# Sequence of UniProt Q03181 (Q03181 whole entry, looked up): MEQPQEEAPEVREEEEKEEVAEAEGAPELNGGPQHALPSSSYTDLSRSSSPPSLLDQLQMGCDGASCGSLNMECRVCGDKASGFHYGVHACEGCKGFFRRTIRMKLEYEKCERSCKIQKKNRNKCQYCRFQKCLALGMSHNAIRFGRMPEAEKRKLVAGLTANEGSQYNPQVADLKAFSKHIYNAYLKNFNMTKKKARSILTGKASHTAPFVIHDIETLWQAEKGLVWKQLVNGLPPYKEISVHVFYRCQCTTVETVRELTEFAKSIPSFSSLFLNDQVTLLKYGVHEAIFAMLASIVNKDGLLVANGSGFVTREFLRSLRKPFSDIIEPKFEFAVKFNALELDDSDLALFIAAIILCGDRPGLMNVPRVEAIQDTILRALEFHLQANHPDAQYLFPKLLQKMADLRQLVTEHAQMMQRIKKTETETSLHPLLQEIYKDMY
# How it was run: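 Antagonist-mode qHTS using GeneBLAzer PPAR-delta-UAS-bla HEK293T cells; compound exposure 18 hrs at 37 C over a titration. Ratiometric CCF4 fluorescence at 460/530 nm; concentration-response points fitted to the Hill equation.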
# [11] = qHTS for Inhibitors of ATXN expression: Validation of Cytotoxic Assay (AID 588349); note: potency is the fitted concentration of half-maximal effect
# How it was run: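 Cytotoxicity counter-screen: HEK293 cells exposed to compound titrations, 72 hr, 37 degrees C. Read-out is intracellular ATP (CellTiter Glo luminescence) as a viability measure.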
# [12] = qHTS for Inhibitors of ATXN expression: Validation (AID 588378); note: nearly all actives have a fitted effect of over 75% in size; note: potency is the fitted concentration of half-maximal effect
# How it was run: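 Cells: HEK293-ATXN2-FFLuc, phenol-red free DMEM, 2 h attachment. Compound pin-transfer, 24 h, 37 degrees C, 5% CO2. CellTiter-Fluor 30 min, Ex405/Em525; Bright-Glo 5 min, luminescence 2 s exposure.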
# [13] = molecular target: Androgen receptor (Homo sapiens) (UniProt P10275); assay: qHTS assay for small molecule antagonists of androgen receptor signaling (AID 588516; active = well fitted curve in the direction sought with a large enough effect in the signal ratio, with a control signal flat, not every such curve was filed as active; inconclusive = small, poorly fitted or top-dose-only effect, or effect the other way, or a change in a side signal; inactive = no such curve, though single readings can be large or run the other way; the % refers to the signal ratio; note: % is set by controls: 0 for no effect and ±100 for the full control effect); details: AR-UAS-bla HEK293, beta-lactamase ratio, antagonist mode, 16 h; activity change, negative = inhibition: at 76.8 µM (top of the series)
# How it was run: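 Cells were plated and incubated 5 h, compounds added in titration, then R1881 (10 nM final) as agonist. After 16 h at 37 C, CCF4 substrate was loaded for 2 h at room temperature and fluorescence measured.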
# [14] = activity change, negative = inhibition: at 76.8 µM (top of the series)
# [15] = activity change, negative = inhibition: at 76.7 µM (top of the series) unless noted
# Tags give direction and shape of the fitted curve or compound fluorescence and quenching.
smiles,measurement,setting,value
Nc1ccc(N=Nc2ccccc2)cc1,"activity, negative = inhibition",[1],inconclusive: -30.7%
same,activation,[2],inconclusive: 11.8%
same,activation,[3],inactive: -2.94%
same,Potency,[4],inactive
O=C1c2ccccc2C(=O)C1C(=O)C(c1ccccc1)c1ccccc1,Potency,[5],active: 31.6 µM
same,"activity change, negative = inhibition",[6]; [14],inconclusive: -24.3%
same,activation,[7],inconclusive: -10.2%
same,Potency,[8],inactive
C[C@@H]1Cc2c(Cl)cc(C(=O)N[C@@H](Cc3ccccc3)C(=O)O)c(O)c2C(=O)O1,Potency,[1],"inconclusive: 31.6 µM [fluorescent, side channel, partial curve, poor fit]"
same,Potency,[2],active: 44.7 µM
same,Potency,[9],"inconclusive: 50.1 µM [activator, partial curve, poor fit]"
same,Potency,[3],"inconclusive: 3.16 µM [side channel, falling, full curve, poor fit]"
same,Potency,[6]; [14],active: 0.891 µM
same,Potency,[10]; [15],"inconclusive: 44.7 µM [side channel, rising, partial curve, poor fit]"
same,Potency,[7],"inconclusive: 0.562 µM [inhibitor, full curve]"
same,Potency,[8],active: 2 µM
same,Potency,[4],"inconclusive: 12.6 µM [side channel, rising, partial curve, poor fit]"
Nc1ccc([As](=O)(O)O)cc1,"activity, negative = inhibition",[1],inconclusive: -33.7%
same,Potency,[2],active: 15.8 µM
CC[C@@]1(O)C(=O)OCc2c1cc1n(c2=O)Cc2cc3ccccc3nc2-1,Potency,[11],"inconclusive: 1.78 µM [cytotoxic, full curve, poor fit]"
COc1ccccc1N1CCNCC1,Potency,[11],inactive
same,Potency,[12],inactive
Oc1ccc2c3c1O[C@H]1c4[nH]c5c(c4C[C@@]4(O)[C@@H](C2)N(CC2CC2)CC[C@]314)C[C@@]1(O)[C@H]2Cc3ccc(O)c4c3[C@@]1(CCN2CC1CC1)[C@H]5O4,Potency,[11],"inconclusive: 20 µM [cytotoxic, partial curve, poor fit]"
CC(O)(CS(=O)(=O)c1ccc(F)cc1)C(=O)Nc1ccc(C#N)c(C(F)(F)F)c1 (stereo unspecified),Potency,[12],inactive
COc1ccc(CNC(=O)/C=C/c2ccc3[nH]cc(CCN(C)C)c3c2)cc1,Potency,[12],"inconclusive: 22.4 µM [inhibitor, single point]"
Nc1ccc(Sc2ccc(N)cc2)cc1,"activity, negative = inhibition",[1],inconclusive: -9.5%
same,Potency,[2],"inconclusive: 20 µM [fluorescent, side channel, partial curve, poor fit]"
same,activation,[2],inconclusive: 67%
same,Potency,[10]; [15],"inconclusive: 31.6 µM [fluorescent, side channel, partial curve, poor fit]"
same,"activity change, negative = inhibition",[10]; [15],inconclusive: -19.2%
same,"activity, negative = inhibition",[8],inconclusive: -20.1%
COC(=O)C1=CCCN(C)C1,Potency,[11],inactive
O=C(N[C@H]1CN2CCC1CC2)c1ccc(Cl)cc1,Potency,[11],inactive
O=C(O)CCCc1ccc(N(CCCl)CCCl)cc1,Potency,[11],inactive
same,activation,[2],inconclusive: 61.1%
same,"activity change, negative = inhibition",[10]; [15],inconclusive: 23%
same,"activity change, negative = inhibition",[10]; at 76.7 µM (top of the series),inactive: 8.52%
same,Potency,[7],inactive
c1ccc2c(c1)OCC(C1=NCCN1)O2 (stereo unspecified),Potency,[11],active: 22.4 µM
same,Potency,[12],"inconclusive: 39.8 µM [inhibitor, single point]"
N#Cc1nn(-c2c(Cl)cc(C(F)(F)F)cc2Cl)c(N)c1S(=O)C(F)(F)F (stereo unspecified),Potency,[1],"inconclusive: 50.1 µM [side channel, rising, single point]"
same,Potency,[2],inactive
same,Potency,[9],"inconclusive: 39.8 µM [inhibitor, partial curve, poor fit]"
same,"activity change, negative = inhibition",[13],inconclusive: -118%
same,"activity change, negative = inhibition",[6]; [14],inconclusive: 37.5%
same,Potency,[10]; [15],"inconclusive: 50.1 µM [side channel, rising, single point]"
same,activation,[7],inconclusive: -15.3%
same,"activity, negative = inhibition",[8],inconclusive: -15.4%
same,"activity change, negative = inhibition",[4],inconclusive: -20.5%
N[C@@H](Cc1ccc(N(CCCl)CCCl)cc1)C(=O)O,Potency,[5],"inconclusive: 89.1 µM [inhibitor, partial curve, poor fit]"
same,"activity change, negative = inhibition",[6]; [14],inconclusive: -23%
same,"activity change, negative = inhibition",[6]; at 76.8 µM (top of the series),inactive: -7.05%
same,Potency,[10]; [15],"inconclusive: 44.7 µM [fluorescent, side channel, partial curve, poor fit] and inconclusive: 39.8 µM [fluorescent, side channel, partial curve]"
same,"activity, negative = inhibition",[8],inconclusive: -43.9%
CO/C=C(/C(=O)OC)c1ccccc1Oc1cc(Oc2ccccc2C#N)ncn1,Potency,[1],"inconclusive: 31.6 µM [falling, partial curve]"
same,Potency,[2],"inconclusive: 44.7 µM [side channel, rising, single point]"
same,Potency,[9],"inconclusive: 25.1 µM [inhibitor, partial curve, poor fit]"
same,"activity change, negative = inhibition",[13],inconclusive: -122%
same,Potency,[10]; [15],"inconclusive: 39.8 µM [side channel, rising, single point]"
same,Potency,[7],"inconclusive: 28.2 µM [inhibitor, partial curve]"
same,Potency,[8],"inconclusive: 44.7 µM [falling, partial curve]"
